Measured values reported in patent US7795244B2, “Penem prodrugs” (priority 2006, dated 2010).

Protocol: In the HIJ experiments, HIJ from 4 individual subjects (1 mL each) was pooled with 1 mL of 600 mM potassium phosphate buffer pH 7.4. Aliquots of 300 μL×6 of the buffered human intestinal juice were incubated at 37° C. following fortification of substrate at concentrations of 300, 100, 30, 10, 3, and 1 μM. Two prodrug compounds could be run at the same time. Samples of 35 μL were taken at 0, 05, 1, 2, 10, and 20 minutes and quenched with 70 μL of 80/20 acetonitrile/100 mM ammonium acetate pH 4.5 containing an internal standard (ampicillin, 5 μg/mL). Samples were centrifuged at 3000 g for 10 minutes and the supernatants transferred to injection vials. First order degradation of the prodrug was monitored by LC/MS/MS as described below. […]
Quenched samples from these in vitro experiments were quantified using LC/MS/MS. […] Ampicillin was used as an internal standard (5 μg/mL) The effluent was analyzed by a mass spectrometer detector (Sciex API 3000) fitted with a turbo ion spray interface and operated in positive ion mode with a declustering potential of 10V, temperature of 400° C. and collision energy of 25V. All prodrugs, sulopenem, and ampicillin, were monitored by MRM transitions of the protonated parent mass to a major fragment ion in the collision induced dissociation spectra. […]

Row | Compound | gastrointestinal stability (in words)
1 | C[C@@H](O)[C@H]1C(=O)N2C(C(=O)OCOC(=O)OC3CCC(C)(C)CC3)=C(S[C@H]3CC[S@@+]([O-])C3)S[C@H]12 [Compound A] | inherent instability in the gastrointestinal tract
2 | CCC(CC)C(=O)OCOC(=O)C1=C(S[C@H]2CC[S@@+]([O-])C2)S[C@@H]2[C@@H]([C@@H](C)O)C(=O)N12 [Compound 1, (2-Ethyl-1-oxobutoxy)methyl (5R,6S)-6-[(1R)-1-hydroxyethyl]-7-oxo-3-[[(1R,3S)-tetrahydro-1-oxido-3-thienyl]thio]-4-thia-1-azabicyclo[3.2.0]hept-2-ene-2-carboxylate] | Improved gastrointestinal stability
